# Source: the supplement of paper PMC8728848
# The other results are listed elsewhere or left out.
# B1: Cohesin-marm-DC-ASGPR (protein)
# chain: LDITSHHHHHHDDLDAVRIKVDTVNAKPGDTVRIPVRFSGIPSKGIANCDFVYSYDPNVLEIIEIEPGDIIVDPNPDKSFDTAVYPDRKIIVFLFAEDSGTGAYAITKDGVFATIVAKVKEGAPNGLSVIKFVEVGGFANNDLVEQKTQFFDGGVNVGDTTEPATPTTPVTTPTTTDDLDAASSKFQRDLVTLRTDFSNFTSNTLAEIQALTSQGSSLQETIASLKAEVEGHKQELQAGASELQEHNKQKAHLGRCPHTCVCPSSFVCVPVHSEILLRVQQLVQDLNKLSCQVAILKNNATTERTCCPINWVEHQGSCYWFSRSGKTWPEAERYCQLENTHLVVINSREEQNFVQAHLGSAYTWMGLSDPEGVWKWVDGTDYSSGFQNWKPGQPDDWQGHGLGGGEDCAHFHPDGRWNDDVCQRSYHWVCEAGLTQASQDSHAS
# How the values were obtained:
# Assay in all cases: glycan array binding signal (z-score within array); higher = stronger binding
# Conditions in all cases: glycan notation: IUPAC condensed, linker removed
# [1] = biological target: Fuc(a1-2)[GalNAc(a1-3)]Gal(b1-3)GlcNAc(b1-6)GalNAc
# How it was run: (§1)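 Columns mapping to the same glycan were averaged after glycan names were converted to IUPAC-condensed notation. The data come from 3228 arrays in the Consortium for Functional Glycomics database, limited to those with an available protein sequence. Binding is reported as a within-array Z-score averaged across arrays of one protein sequence and across linkers.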
# [2] = biological target: Fuc(a1-2)[GalNAc(a1-3)]Gal(b1-4)Glc
# How it was run: as §1
# [3] = biological target: Fuc(a1-2)[GalNAc(a1-3)]Gal(b1-4)GlcNAc
# How it was run: as §1
# [4] = biological target: Fuc(a1-2)[GalNAc(a1-3)]Gal(b1-4)GlcNAc(b1-2)Man
# How it was run: as §1
# [5] = biological target: Fuc(a1-2)[GalNAc(a1-3)]Gal(b1-4)GlcNAc(b1-2)Man(a1-3)[Fuc(a1-2)[GalNAc(a1-3)]Gal(b1-4)GlcNAc(b1-2)Man(a1-6)]Man(b1-4)GlcNAc(b1-4)GlcNAc
# How it was run: as §1
# [6] = biological target: Fuc(a1-2)[GalNAc(a1-3)]Gal(b1-4)GlcNAc(b1-2)Man(a1-3)[Fuc(a1-2)[GalNAc(a1-3)]Gal(b1-4)GlcNAc(b1-2)Man(a1-6)]Man(b1-4)GlcNAc(b1-4)[Fuc(a1-6)]GlcNAc
# How it was run: as §1
# [7] = biological target: Fuc(a1-2)[GalNAc(a1-3)]Gal(b1-4)GlcNAc(b1-3)Gal(b1-4)GlcNAc
# How it was run: as §1
# [8] = biological target: Fuc(a1-2)[GalNAc(a1-3)]Gal(b1-4)GlcNAc(b1-3)Gal(b1-4)GlcNAc(b1-3)Gal(b1-4)GlcNAc
# How it was run: as §1
# [9] = biological target: Fuc(a1-2)[GalNAc(a1-3)]Gal(b1-4)GlcNAc(b1-3)GalNAc
# How it was run: as §1
# [10] = biological target: Fuc(a1-2)[GalNAc(a1-3)]Gal(b1-4)GlcNAc(b1-3)[Fuc(a1-2)[GalNAc(a1-3)]Gal(b1-4)GlcNAc(b1-6)]GalNAc
# How it was run: as §1
# [11] = biological target: Fuc(a1-2)[GalNAc(a1-3)]Gal(b1-4)GlcNAc(b1-6)GalNAc
# How it was run: as §1
# [12] = biological target: Fuc(a1-2)[GalNAc(a1-3)]Gal(b1-4)[Fuc(a1-3)]GlcNAc
# How it was run: as §1
# [13] = biological target: Fuc(a1-2)[GalNAc(a1-3)]Gal(b1-4)[Fuc(a1-3)]GlcNAc(b1-3)GalNAc
# How it was run: as §1
# [14] = biological target: Fuc(a1-2)[GalNAc(a1-4)]Gal(b1-4)GlcNAc
# How it was run: as §1
# [15] = biological target: Fuc(a1-2)[GalNAc(b1-3)]Gal
# How it was run: as §1
# Fuc(a1-3)GlcNAc = biological target: Fuc(a1-3)GlcNAc
# How it was run: as §1
# [16] = biological target: Fuc(a1-3)[Gal(b1-4)]Glc6S
# How it was run: as §1
# [17] = biological target: Fuc(a1-3)[Gal(b1-4)]GlcNAc
# How it was run: as §1
# [18] = biological target: Fuc(a1-3)[Gal(b1-4)]GlcNAc(b1-2)Man
# How it was run: as §1
# [19] = biological target: Fuc(a1-3)[Gal(b1-4)]GlcNAc(b1-2)Man(a1-3)[Fuc(a1-3)[Gal(b1-4)]GlcNAc(b1-2)Man(a1-6)]Man(b1-4)GlcNAc(b1-4)GlcNAc
# How it was run: as §1
# [20] = biological target: Fuc(a1-3)[Gal(b1-4)]GlcNAc(b1-2)Man(a1-3)[Fuc(a1-3)[Gal(b1-4)]GlcNAc(b1-2)Man(a1-6)]Man(b1-4)GlcNAc(b1-4)[Fuc(a1-6)]GlcNAc
# How it was run: as §1
# [21] = biological target: Fuc(a1-3)[Gal(b1-4)]GlcNAc(b1-3)Gal(b1-3)[Fuc(a1-4)]GlcNAc
# How it was run: as §1
# [22] = biological target: Fuc(a1-3)[Gal(b1-4)]GlcNAc(b1-3)Gal(b1-4)[Fuc(a1-3)]GlcNAc
# How it was run: as §1
# [23] = biological target: Fuc(a1-3)[Gal(b1-4)]GlcNAc(b1-3)Gal(b1-4)[Fuc(a1-3)]GlcNAc(b1-3)Gal(b1-4)[Fuc(a1-3)]GlcNAc
# How it was run: as §1
# [24] = biological target: Fuc(a1-3)[Gal(b1-4)]GlcNAc(b1-3)GalNAc
# How it was run: as §1
# [25] = biological target: Fuc(a1-3)[Gal(b1-4)]GlcNAc(b1-6)GalNAc
# How it was run: as §1
# [26] = biological target: Fuc(a1-3)[Gal(b1-4)]GlcNAc(b1-6)[Gal(b1-3)GlcNAc(b1-3)]Gal(b1-4)Glc
# How it was run: as §1
# [27] = biological target: Fuc(a1-3)[Gal(b1-4)]GlcNAc6S
# How it was run: as §1
# [28] = biological target: Fuc(a1-3)[Gal3S(b1-4)]Glc
# How it was run: as §1
# [29] = biological target: Fuc(a1-3)[Gal3S(b1-4)]GlcNAc
# How it was run: as §1
# [30] = biological target: Fuc(a1-3)[Gal3S(b1-4)]GlcNAc6S
# How it was run: as §1
# [31] = biological target: Fuc(a1-3)[GalNAc(b1-4)]GlcNAc
# How it was run: as §1
# [32] = biological target: Fuc(a1-3)[GalNAc(b1-4)]GlcNAc6S
# How it was run: as §1
# Fuc(a1-4)GlcNAc = biological target: Fuc(a1-4)GlcNAc
# How it was run: as §1
# Fuc(b1-3)GlcNAc = biological target: Fuc(b1-3)GlcNAc
# How it was run: as §1
# Gal(a1-2)Gal = biological target: Gal(a1-2)Gal
# How it was run: as §1
# Gal(a1-3)Gal = biological target: Gal(a1-3)Gal
# How it was run: as §1
binder,measurement,setting,value
B1,glycan array binding signal (z-score),[1],3.82
same,glycan array binding signal (z-score),[2],-0.285
same,glycan array binding signal (z-score),[3],-0.034
same,glycan array binding signal (z-score),[4],-0.149
same,glycan array binding signal (z-score),[5],-0.267
same,glycan array binding signal (z-score),[6],-0.254
same,glycan array binding signal (z-score),[7],-0.26
same,glycan array binding signal (z-score),[8],-0.272
same,glycan array binding signal (z-score),[9],-0.271
same,glycan array binding signal (z-score),[10],-0.2
same,glycan array binding signal (z-score),[11],4.32
same,glycan array binding signal (z-score),[12],-0.233
same,glycan array binding signal (z-score),[13],-0.292
same,glycan array binding signal (z-score),[14],4.11
same,glycan array binding signal (z-score),[15],3.73
same,glycan array binding signal (z-score),Fuc(a1-3)GlcNAc,-0.251
same,glycan array binding signal (z-score),[16],-0.286
same,glycan array binding signal (z-score),[17],-0.254
same,glycan array binding signal (z-score),[18],-0.28
same,glycan array binding signal (z-score),[19],-0.172
same,glycan array binding signal (z-score),[20],-0.291
same,glycan array binding signal (z-score),[21],-0.3
same,glycan array binding signal (z-score),[22],-0.271
same,glycan array binding signal (z-score),[23],-0.299
same,glycan array binding signal (z-score),[24],-0.279
same,glycan array binding signal (z-score),[25],1.3
same,glycan array binding signal (z-score),[26],-0.301
same,glycan array binding signal (z-score),[27],-0.312
same,glycan array binding signal (z-score),[28],-0.219
same,glycan array binding signal (z-score),[29],-0.235
same,glycan array binding signal (z-score),[30],-0.193
same,glycan array binding signal (z-score),[31],3.68
same,glycan array binding signal (z-score),[32],2.7
same,glycan array binding signal (z-score),Fuc(a1-4)GlcNAc,-0.178
same,glycan array binding signal (z-score),Fuc(b1-3)GlcNAc,-0.264
same,glycan array binding signal (z-score),Gal(a1-2)Gal,-0.248
same,glycan array binding signal (z-score),Gal(a1-3)Gal,-0.305
